# Test results from the supplement of paper PMC3334620.
# Whole data set: some 33,000 sequences, median “E-score (-0.5 to 0.5)” near -0.012, cut for the highest 2% near 0.29. The list shows a part of the results.
# Target: T1, Ybr033w (UniProt P38073)
# T1 sequence: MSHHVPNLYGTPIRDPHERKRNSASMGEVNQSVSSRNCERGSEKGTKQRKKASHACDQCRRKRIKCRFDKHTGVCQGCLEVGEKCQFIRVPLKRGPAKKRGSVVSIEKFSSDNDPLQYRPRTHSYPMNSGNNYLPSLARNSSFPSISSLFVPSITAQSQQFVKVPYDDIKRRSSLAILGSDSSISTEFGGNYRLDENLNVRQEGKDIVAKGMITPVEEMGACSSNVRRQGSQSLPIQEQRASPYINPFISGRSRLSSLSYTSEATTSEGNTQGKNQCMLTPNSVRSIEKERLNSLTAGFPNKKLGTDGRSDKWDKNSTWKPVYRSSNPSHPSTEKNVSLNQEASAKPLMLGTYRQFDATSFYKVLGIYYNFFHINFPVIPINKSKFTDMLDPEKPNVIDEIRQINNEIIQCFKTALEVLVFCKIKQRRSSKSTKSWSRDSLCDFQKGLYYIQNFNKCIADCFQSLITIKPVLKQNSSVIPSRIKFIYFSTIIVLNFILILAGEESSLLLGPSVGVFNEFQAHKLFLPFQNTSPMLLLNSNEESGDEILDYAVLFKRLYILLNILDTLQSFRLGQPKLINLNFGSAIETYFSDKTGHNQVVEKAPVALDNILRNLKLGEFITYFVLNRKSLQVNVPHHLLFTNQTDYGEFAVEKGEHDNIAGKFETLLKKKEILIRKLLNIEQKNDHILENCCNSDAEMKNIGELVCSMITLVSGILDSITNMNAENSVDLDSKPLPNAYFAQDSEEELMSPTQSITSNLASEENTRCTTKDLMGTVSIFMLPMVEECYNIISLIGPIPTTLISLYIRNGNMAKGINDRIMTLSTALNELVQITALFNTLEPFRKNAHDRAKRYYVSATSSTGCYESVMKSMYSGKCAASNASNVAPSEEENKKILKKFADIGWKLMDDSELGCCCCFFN
# Test: PBM E-score (8-mer binding enrichment) (E-score (-0.5 to 0.5)); higher = stronger / more preferred TF binding; most listed sequences are background and not binding sites
# Conditions: protein concentration: 200 nM; construct: GST-full length
# Procedure: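 Universal 'all 10-mer' protein binding microarrays (Agilent AMADID 015681) probed with GST-tagged S. cerevisiae TFs (full-length or DBD) made by in vitro transcription/translation (PURExpress), about 100-200 nM. Bound TF was detected with fluorescent anti-GST. Each ungapped 8-mer (which stands for itself and its reverse complement) is scored by the PBM enrichment score (E-score), a modified Wilcoxon-Mann-Whitney statistic from -0.5 to +0.5, computed with the Universal PBM Analysis Suite. Scale: above 0.35 generally sequence-specific binding.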
row,Sequence,PBM E-score
1,AGACGGCG,-0.0817
2,CTCATGAC,-0.145
3,GAGGGATA,-0.182
4,CTAACCCC,-0.317
5,GGATCTAA,-0.0711
6,CGCTTACG,-0.0972
7,ATTACGTG,-0.0334
8,ACACTCCA,-0.0609
9,CTATCAGC,0.0765
10,CCATTGAA,0.151
11,GGATCGTA,-0.0932
12,GTCGGCTA,0.00209
13,ACAAAGCT,-0.0646
14,AATAGTAG,0.201
15,CGCAATTA,0.11
16,GTTTGATA,0.177
17,GTCATACA,0.108
18,AAAGTACG,0.0441
19,ATTATACC,0.179
20,CTCTAGTC,-0.138
21,TGACCCAA,0.00837
22,ATATTGCA,0.12
23,TAGCCAAA,0.199
24,AGTGCATG,-0.0746
25,ATATCGCC,0.0794

row,Sequence,PBM E-score
1,GCCTTCAA,-0.00041
2,ACTTTCAC,0.117
3,CAACCGTC,-0.105
4,AACACACT,0.121
5,CCTAGCGC,-0.137
6,AGTCGGAG,-0.133
7,GGCACGTA,-0.0905
8,ATACGGGG,-0.301
9,CTTTCGAC,-0.0312
10,GCAACGGC,-0.0796
11,AAACTGGC,-0.0686
12,ATCAGAAC,0.0471
13,CCTTGCGA,-0.0942
14,AGGGGGTA,-0.412
15,AGCTGGCA,-0.0445
16,ACGCATAA,0.0931
17,ACACATTA,0.0927
18,GCCACTAC,-0.138
19,AGCCCTGG,-0.252
20,GGCCCTCA,-0.283
21,GACATCTC,-0.0385
22,AAGAGGTA,0.0628
23,TATGCGAA,-0.0155
24,AACGCTTA,0.0224
25,CGTTGTAG,-0.0702

row,Sequence,PBM E-score
1,CTTAGGCA,-0.109
2,ACCGTCAC,-0.136
3,CATTTGGG,-0.0721
4,AAGTCTAT,-0.00931
5,CAAAGGAA,0.233
6,AGGTATCG,0.0829
7,CGCTATTA,0.143
8,CTGGGGTC,-0.157
9,CACCAATA,0.129
10,GAGCCGTA,0.133
11,GCAATTCA,0.119
12,CGCACGTC,0.00576
13,ACCTGCTC,-0.209
14,AGCTGGCG,-0.267
15,CCCCACTC,-0.227
16,TAGAGTGA,-0.167
17,CATGTAAC,0.00379
18,AGACTAAT,0.138
19,ACCAGATA,0.132
20,AGCAATTA,0.166
21,AATGACTG,0.0912
22,GGTGAACA,-0.24
23,AACTGAGG,-0.0282
24,ACGCAATC,-0.0299
25,ACGTTCCA,0.0552

row,Sequence,PBM E-score
1,AACTAGGT,0.175
2,CCTGGACG,-0.331
3,AAATCTCT,0.152
4,GTAACTAC,0.16
5,CGACAGAC,-0.125
6,CGGAGGCA,0.038
7,ATTCCGAC,0.157
8,AGGTACAA,-0.028
9,CGAAGCCA,-0.107
10,AACCACAA,0.151
11,GCGCCTTA,0.0244
12,AGTGGACG,-0.0183
13,ACTATTTG,0.248
14,GACCCCGC,-0.258
15,AACCTGTA,0.0214
16,CTTGGCTA,0.00737
17,CCCAGGAA,-0.0507
18,CCACCCTC,-0.0745
19,ATTCGAAT,0.15
20,GAAGACGA,0.0151
21,ACGTTGCA,-0.0209
22,ATGCCGAA,-0.0288
23,CGCCTCAA,-0.125
24,AATCCGGA,0.172
25,AATGCGTG,-0.05

row,Sequence,PBM E-score
1,CACTTTTA,0.0413
2,CGTGTGTA,0.123
3,GTTAGACA,0.218
4,GTCGAGTA,-0.00604
5,AACGCGAA,0.0565
6,AGTGAGTA,0.185
7,ACGCCGCC,-0.292
8,CGGTGACG,-0.0845
9,GCGCGCAC,-0.0608
10,CTCATCTC,-0.132
11,ATAACTAT,0.199
12,TACTAATA,0.185
13,GGCATGAC,-0.259
14,ATTGAAGC,0.059
15,CCAACACA,0.12
16,TATTTGAA,0.255
17,AATCGCAT,0.219
18,AAGGTCTA,0.04
19,CTTAGACA,-0.124
20,ACTCATAC,0.184
21,CCAGCGGC,-0.0519
22,CTAGTAGC,0.0422
23,GCCCAGAA,0.0667
24,CCTTAGCG,-0.178
25,GCCTTGAC,-0.218

row,Sequence,PBM E-score
1,AAGTAACA,0.168
2,AAAAAGGT,0.185
3,ACTACGAG,0.102
4,CCTGCTCA,-0.156
5,CCGCTGAA,-0.0978
6,GCGGCGAA,-0.022
7,GGGCTTAA,-0.0348
8,ATTGTAGA,0.295
9,TAGTAGAA,0.096
10,GGGGTACC,-0.351
11,CTGGGGAC,-0.252
12,ACTTGGTA,0.161
13,ATACAGTG,0.108
14,AGTTATTC,0.345
15,GTCGTGCA,-0.0611
16,AAAGACTG,-0.13
17,AAGCCTTA,-0.123
18,CCATACGC,0.149
19,AGTGGTTA,0.0512
20,AGGGTAGG,-0.0794
21,ACGGAGCA,-0.112
22,ACTTTACT,0.0462
23,CCTCCACC,-0.149
24,CAACTGGC,-0.05
25,ACGATCAA,0.186

row,Sequence,PBM E-score
1,GCTGACCC,-0.209
2,GAGATCGA,0.0538
3,TGCGCGAA,0.172
4,TCCATCGA,0.103
5,AAATCGCG,0.134
6,GGTAGAGA,-0.0192
7,TCTACTAA,0.23
8,CAATACCA,0.184
9,GGCTCTTA,-0.0701
10,AACCTCAA,-0.0448
11,CATATGCG,-0.00642
12,CGTATTTC,0.0631
13,GTCCGGTA,-0.284
14,ATTTACCG,0.132
15,TCGGAAGA,0.193
16,ATGGGGTA,0.0125
17,GATTCGAC,0.0558
18,ATGGATCC,-0.134
19,CGAGGACG,-0.322
20,GGGTTGTA,-0.0949
21,GTACCAAA,0.164
22,CGTGTCGC,0.0894
